# In PubChem BioAssay AID488969 (Vanderbilt High Throughput Screening Facility, 2010):
# Several values for one entry are separate records, joined by “and”; a condition that tells them apart may be missing. Equal entries are not always repeated. In all, about 110,000 compounds were measured (“z-score”: median about -0.1, highest 2% from about 2 on). This is one part of the list.
# Target: Metabotropic glutamate receptor 8 (Rattus norvegicus) (UniProt P70579)
# Assay: mGluR8 Gi/Go-coupled signaling modulation – cell-based, rat, thallium flux, HTS, primary screen (AID 488969)
# Settings: HEK293 rat mGluR8, GIRK (G protein-gated inwardly rectifying potassium channel) thallium flux, FluoZin2; at 10 µM; stronger effect = higher value; submaximal glutamate (EC20) added with thallium
# Sequence of UniProt P70579 (P70579 whole entry, looked up): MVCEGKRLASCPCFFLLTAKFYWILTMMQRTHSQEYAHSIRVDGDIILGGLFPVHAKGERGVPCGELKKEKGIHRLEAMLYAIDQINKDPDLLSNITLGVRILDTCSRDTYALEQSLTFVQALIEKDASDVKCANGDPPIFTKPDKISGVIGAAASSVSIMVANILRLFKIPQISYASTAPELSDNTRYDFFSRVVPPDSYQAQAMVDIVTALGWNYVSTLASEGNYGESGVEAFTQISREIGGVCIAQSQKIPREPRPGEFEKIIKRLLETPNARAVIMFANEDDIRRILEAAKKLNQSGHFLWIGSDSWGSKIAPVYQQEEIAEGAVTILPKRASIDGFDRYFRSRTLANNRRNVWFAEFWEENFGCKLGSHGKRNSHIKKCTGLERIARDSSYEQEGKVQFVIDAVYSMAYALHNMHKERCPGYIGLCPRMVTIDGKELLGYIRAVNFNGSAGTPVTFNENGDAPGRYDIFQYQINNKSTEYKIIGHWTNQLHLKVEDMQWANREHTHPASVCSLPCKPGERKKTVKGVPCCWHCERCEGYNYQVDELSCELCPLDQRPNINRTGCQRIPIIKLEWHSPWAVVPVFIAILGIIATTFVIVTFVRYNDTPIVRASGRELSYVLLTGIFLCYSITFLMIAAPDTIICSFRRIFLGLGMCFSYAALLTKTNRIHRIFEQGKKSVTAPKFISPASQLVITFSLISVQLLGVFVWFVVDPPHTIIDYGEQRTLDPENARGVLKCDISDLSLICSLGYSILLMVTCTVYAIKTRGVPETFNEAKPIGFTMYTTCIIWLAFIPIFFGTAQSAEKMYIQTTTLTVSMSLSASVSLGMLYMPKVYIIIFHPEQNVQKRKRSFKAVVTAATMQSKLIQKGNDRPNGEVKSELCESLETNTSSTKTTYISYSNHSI
row,SMILES,z-score
1,O=C(Nc1ncc(Cc2cccc(Cl)c2)s1)c1cccs1,-0.167
2,Oc1ccccc1/C=N/c1c(-c2ccco2)nc2ccccn12,-0.278
3,COc1ccc(CCNc2nc(-c3ccco3)cc(C(F)(F)F)n2)cc1OC,-0.906
4,COC(=O)/C=c1\sc2n(c1=O)C(C)=CC(C)(C)N=2,-0.611
5,CN1/C(=C/C2CC(=O)N(c3cccc4ccccc34)C2=O)C(C)(C)c2ccccc21 (centres undefined),-0.674
6,COc1ccc2c(c1)cc(C(=O)O)n2C,0.0275
7,COc1cc(Cl)c(C)cc1NC(=O)COC(=O)/C=C/c1c(C)nn(C2CCS(=O)(=O)C2)c1Cl (centres undefined),-0.286
8,O=C(NCCOCCOCCNC(=O)c1cccnc1)c1cccnc1,0.119
9,Nc1cc(-c2ccc(Cl)cc2)nn1S(=O)(=O)c1ccc(Cl)cc1,-0.0623
10,Clc1ccc(-c2nnc3c4ccccc4nc(N4CCOCC4)n23)cc1Cl,-0.168
11,COC(=O)C1=C(C)N(CCc2ccc(OC)cc2)C(=O)C1,2.28
12,Cc1onc(-c2ccccc2Cl)c1C(=O)N1CC(C)OC(C)C1 (centres undefined),-0.52
13,CCCn1nnc(NC(=O)COc2ccccc2Cl)n1,0.651
14,CCCCCNC(=O)C(C#N)c1nc2ccccc2nc1N1CC(C)OC(C)C1 (centres undefined),-0.47
15,CCCCSc1c(C)c2cc3c(cc2[nH]c1=O)OCO3,-1.07
16,O=C(CNC(=S)N(Cc1ccccc1)Cc1cccnc1)NC1CCCCC1,-0.159
17,CCC(=O)Nc1ccc(S(=O)(=O)Nc2cccc(C)c2)cc1OC,-0.094
18,COc1cccc(-c2csc(N3CCN(C(=S)Nc4cccc(Cl)c4)CC3)n2)c1,0.143
19,COc1ccccc1S(=O)(=O)Cc1ccc(C(=O)NC(C)c2ccc3c(c2)OCCO3)o1 (centres undefined),-0.0397
20,CN(C)CCCN(C(=O)c1cc2ccccc2oc1=O)c1nc2ccc(F)cc2s1,0.194
21,C(=C\c1ccccc1)/CSc1nnc(-c2cccnc2)o1,-1.49
22,Clc1cc(Cl)c2nc(N3CCOCC3)sc2c1,-0.475

row,SMILES,z-score
1,CCOC(=O)CSc1nc2c(sc3ccccc32)c(=O)n1CCCN1CCOCC1,0.498
2,Cc1cc(N2CCOCC2)nc(SCC(=O)c2ccc(Cl)cc2)n1,-0.547
3,CCCCOC(=O)Cn1c(=O)oc2ccc(C)cc21,0.171
4,COc1ccc(NC(=O)N(C2CCCCC2)C(C)c2cccnc2)c(OC)c1 (centres undefined),-0.0677
5,CC1CCc2nc(NC(=O)c3ccc(S(=O)(=O)N4CCCc5ccccc54)cc3)sc2C1 (centres undefined),-0.137
6,Cc1ccc(C(C(=O)NC2CCCC2)N(C(=O)Cc2cccs2)c2ccc3c(c2)OCCO3)cc1 (centres undefined),-0.449
7,Cc1[nH]c2ccccc2c1C(=O)CN1C(=O)NC2(CC(C)CC(C)(C)C2)C1=O (centres undefined),-0.266
8,O=C1CC(c2ccccc2Cl)C2=C(COC2=O)N1 (centres undefined),-0.181
9,COc1ccc(C2C(C(=O)Nc3ccccn3)=C(C)Nc3ncnn32)c(OC)c1 (centres undefined),0.84
10,COCc1nc2ccccc2n1Cc1ccc(Br)cc1,-0.445
11,Cc1ccccc1C(=O)Nc1sc(C)c(C)c1C(=O)c1ccccc1,-0.236
12,O=C(Nc1cccc(Cl)c1)Nc1cc(S(=O)(=O)N2CCCCC2)ccc1Cl,0.00193
13,CC(OC(=O)C1CCN(S(=O)(=O)c2ccccc2)CC1)C(=O)Nc1ncc(Cl)cc1Cl (centres undefined),-0.265
14,O=C(c1ccco1)N1CCN(S(=O)(=O)c2ccc(Oc3ccccc3)cc2)CC1,0.84
15,COC(=O)C1=C(C)N=C2SCCC(=O)N2C1c1ccc(OC(=O)c2ccco2)cc1 (centres undefined),1.59
16,Nc1nc(SCc2ccc(Cl)cc2)[nH]c(=O)c1-c1ccccc1,0.163
17,O=c1[nH]cnc2nc(-c3ccccc3)c(-c3ccccc3)nc12,0.419
18,Cc1ccc(Nc2nc(N)nc(CSC(=S)N3CCN(c4ccccc4)CC3)n2)cc1,-0.237
19,Cc1cccc(N2C(=O)N(c3ccccc3C)C3CS(=O)(=O)CC32)c1 (centres undefined),-0.368
20,CC(C)CCCCCCNC(=S)Nc1ccc(S(=O)(=O)N2CCOCC2)cc1,0.432
21,O=c1oc2ccccc2c2c1ncn2C1CCCCC1,-0.33
22,O=C(CSc1ccccc1)Nc1cccnc1,0.182

row,SMILES,z-score
1,O=S(=O)(c1cccc(NC(=S)N2CCN(c3cccc(Cl)c3)CC2)c1)C(F)F,-0.0235
2,COC(=O)Cc1csc(N)n1,-0.232 and 0.0841
3,CN(C)c1ccc(/C=C/c2ccncc2)cc1,-0.421
4,CCOc1cc(C(=S)N2CCCC2)ccc1OCC(=O)Nc1c(C)cc(C)cc1C,0.0537
5,CCn1cc(C(=O)N2CCc3ccccc32)c(=O)c2cc(S(=O)(=O)N3CCCCCC3)ccc21,0.415
6,Cc1nc(NS(=O)(=O)c2ccccc2)sc1NC(=O)OC(C)C,0.543
7,CN1CCN(c2cc(=O)n(-c3ccc(Cl)cc3)c(=O)[nH]2)CC1,-0.111
8,O=C(CSc1nnc2ccccn12)Nc1ncc(Cl)cc1Cl,-0.372
9,COC(=O)c1ccc(CN(c2ccccn2)S(=O)(=O)c2ccccc2)cc1,-0.465
10,CCCC(=O)n1nc(-c2ccccc2)nc1SC,-0.399
11,CCOc1[nH]n(-c2ccc(Cl)cc2)c(=O)c1C=Nc1ccc(C)cc1,-0.176
12,NC(=O)c1ccccc1NC(=O)CCCN1C(=O)CCC1=O,0.329
13,COc1ccccc1NC(=O)CN1C(=O)CCS(=O)(=O)c2ccccc21,0.47
14,O=C(c1ccccc1)c1ccc(OCC(O)CNC2CCCc3ccccc32)cc1 (centres undefined),0.69
15,CCCS(=O)(=O)N1CCCC(C(=O)N2CCN(c3ccccn3)CC2)C1 (centres undefined),-0.17
16,O=C(NC(=S)NCCc1ccccc1)c1ccccc1,1.9
17,COc1ccc(Cn2c(-c3ccc(Br)cc3)c[n+]3ccccc23)cc1,-0.171
18,O=C1c2ccccc2C(O)(Cc2ccccc2)N1C1CCCCC1 (centres undefined),-0.362
19,O=C(Cc1cccs1)N/N=C/C=C/c1ccccc1,0.961
20,Cc1cccc(CSc2nncc(=O)[nH]2)c1,-0.0637
21,Cc1ccc(C)c2c3c([nH]c12)-c1nonc1CC3,-0.122
22,COc1ccc(S(=O)(=O)N2CCN(CC(=O)Nc3ccc(F)c(F)c3)CC2)cc1,-0.731

row,SMILES,z-score
1,CCOC(=O)c1ccccc1C(=O)N1CCOCCOCCOCC1,0.104
2,CCOCCCNC(=O)c1c(N)n(-c2ccc(S(N)(=O)=O)cc2)c2nc3ccccc3nc12,-0.293
3,CCCOc1ccc(Cn2cnc3ccccc32)cc1,0.0859
4,CCN(CC)S(=O)(=O)c1cccc(NC(=O)COC(=O)c2cc(C)oc2C)c1,1.34
5,COC(=O)N(C)c1nc2ccccc2s1,0.104
6,CCOc1ccc(CN(C(=O)c2oc3ccccc3c2C)C2CCS(=O)(=O)C2)cc1 (centres undefined),-0.167
7,CCOC(=O)c1c(/N=C/c2cc(OC)cc([N+](=O)[O-])c2O)sc(C)c1C,-0.172
8,COc1ccc(-c2[nH]ncc2/C=N/NC(=O)c2ccc(Br)cc2)c(OC)c1,-0.904
9,CCC(C)n1c(-c2ccco2)nc2nc3ccccc3nc21 (centres undefined),-1.06
10,CCOC(=O)c1nn(-c2ccc(F)cc2)c2c1CC/C2=C/c1ccccc1,0.739
11,Cc1ccc2nc(-c3ccc(NC(=O)COC(=O)c4ccc(Br)o4)cc3)sc2c1,-0.168
12,COc1ccc(C)cc1S(=O)(=O)Nc1ccc(F)c(Cl)c1,-0.385
13,CC(C)CCNC(=O)c1cnn2c(C(F)(F)F)cc(-c3ccco3)nc12,-1.04
14,COC(=O)c1ccc(-c2ccco2)n1Cc1ccccc1Cl,-0.376
15,CC(=O)N(Cc1ccc2c(c1)OCO2)C1CC(=O)N(CCc2ccccc2)C1=O (centres undefined),1.07
16,CCCCn1c(NCc2ccccc2NS(=O)(=O)c2ccc(C)cc2)nc2ccccc21,-0.354
17,Cn1ccnc1SCC(=O)Nc1ccc2ccccc2c1,-0.203
18,CCC1(C)Cc2c(C#N)c(N)sc(=S)c2CO1 (centres undefined),-1.08
19,CCc1ccc(OCCNC(=O)c2cccs2)cc1,0.789
20,N#CC(C(=O)NC1CC1)c1nc2ccccc2nc1N1CCN(C/C=C/c2ccccc2)CC1 (centres undefined),-0.502
21,CCC(C)NC(=O)C1c2ccccc2C(=O)N(c2ccc(OC)cc2)C1c1ccc(OC)cc1 (centres undefined),-0.411
22,CCOc1cc(CNCCc2ccc(S(N)(=O)=O)cc2)ccc1OCC(=O)NC1CCCCC1,0.417

row,SMILES,z-score
1,CCOC(=O)Nc1c(C(=O)OC)[nH]c2cc(OC)ccc12,0.56
2,CN=c1scc(C)n1/N=C/c1ccc(O)cc1O,0.0453
3,Cc1cc(C(=O)CSc2ncn[nH]2)c(C)n1-c1cccc(S(=O)(=O)N2CCOCC2)c1,-0.696
4,C/C(=N\NC(=O)c1c(Br)c(C)nn1C)c1cccc(NC(=O)c2ccccc2C)c1,-0.644
5,Cc1nc(NC(=O)/C=C/c2ccccc2)sc1C(=O)Nc1ccc(Cl)cc1,0.0734
6,Cc1ccccc1-n1nc2c(c1NC(=O)COc1ccc(Cl)cc1)CS(=O)C2 (centres undefined),-0.623
7,O=C(Oc1cccc(/C=N/Nc2nc(N3CCOCC3)nc(N3CCOCC3)n2)c1)c1ccco1,-0.508
8,O=C(O)Cn1nnc(-c2cccs2)n1,0.0931
9,COc1ccc(CCNC(=O)C2CCCN(S(=O)(=O)c3cccc4nonc34)C2)cc1OC (centres undefined),-1.46
10,CCCSC1=C(C#N)C(c2cccs2)C(C(=O)Nc2ccccc2)=C(C)N1 (centres undefined),-0.638
11,CS(=O)(=O)Nc1ccc(-c2n[nH]c(=S)n2-c2ccccc2)cc1,0.118
12,CC1(C(=O)O)CCC(C(=O)NCCc2ccccc2)C1(C)C (centres undefined),0.0302
13,O=C(/C=C/c1ccc([N+](=O)[O-])cc1)Nc1cccnc1,0.00268
14,COc1ccccc1/C=C(\NC(=O)c1ccc(OC)c(OC)c1)C(=O)Nc1cc([N+](=O)[O-])ccc1C,0.194
15,Cc1cc(C)c(C(N)=O)c(SCC(=O)c2cc(C)c(C)cc2C)n1,-0.0701
16,O=S(=O)(c1ccc(Cl)cc1)N1c2ccccc2Oc2nc3ccccc3nc21,0.634
17,COc1cccc(NC(=S)NC2CC(C)(C)NC(C)(C)C2)c1,0.0244
18,CC(C)(C)NC(=O)Cn1c(SCC(N)=O)nc2ccccc21,0.038
19,Cc1ccc(CN(N=Nc2nonc2N)c2nonc2N)c(C)c1,-0.197
20,CN(C)c1cccc(C(=O)Nc2cc(C(F)(F)F)ccc2-n2cnc3ccccc32)c1,0.403
21,COCCn1c(N)c(S(=O)(=O)c2cccs2)c2nc3ccccc3nc21,0.975
